Laboratory results published in PubChem BioAssay AID504333 (National Center for Advancing Translational Sciences (NCATS), 2011).
Values joined by “and” are separate entries in the source; they are usually repeats but may differ in a detail not shown here. Identical values can stand only once. In all, about 360,000 compounds went through this assay and about 16,000 (4.4%) were called active. Inconclusive means that the source gave no clear call. Such entries were picked first, then a sample of the others. The call rests on the fitted dose curve; in most records, active means well fitted inhibition curve with a large enough effect; inconclusive means small, poorly fitted or top-dose-only effect; inactive means no such curve, though single readings can be large or run the other way. Potencies of inconclusive entries are doubtful fits and often do not repeat.

Target: Bromodomain adjacent to zinc finger domain protein 2B (Homo sapiens) (UniProt Q9UIF8)
Assay: qHTS Assay for Inhibitors of BAZ2B; further: nearly all actives have a fitted effect of over 60% in size
Conditions: AlphaScreen BAZ2B-H3K14Ac peptide displacement; series mostly up to 114 µM
In short: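 In this displacement format the biotinylated H3(5-23) peptide acetylated at Lys14 serves as ligand at 50 nM, with BAZ2B at 50 nM in PBS pH 7.4 containing 0.01% Tween-20. Donor and acceptor beads are 10 ug/mL final.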
Potency means the concentration at half of the fitted maximal effect; tags describe the fitted curve by direction and shape.

Chain of UniProt Q9UIF8 (Q9UIF8 whole entry, looked up, the tested form may be a part): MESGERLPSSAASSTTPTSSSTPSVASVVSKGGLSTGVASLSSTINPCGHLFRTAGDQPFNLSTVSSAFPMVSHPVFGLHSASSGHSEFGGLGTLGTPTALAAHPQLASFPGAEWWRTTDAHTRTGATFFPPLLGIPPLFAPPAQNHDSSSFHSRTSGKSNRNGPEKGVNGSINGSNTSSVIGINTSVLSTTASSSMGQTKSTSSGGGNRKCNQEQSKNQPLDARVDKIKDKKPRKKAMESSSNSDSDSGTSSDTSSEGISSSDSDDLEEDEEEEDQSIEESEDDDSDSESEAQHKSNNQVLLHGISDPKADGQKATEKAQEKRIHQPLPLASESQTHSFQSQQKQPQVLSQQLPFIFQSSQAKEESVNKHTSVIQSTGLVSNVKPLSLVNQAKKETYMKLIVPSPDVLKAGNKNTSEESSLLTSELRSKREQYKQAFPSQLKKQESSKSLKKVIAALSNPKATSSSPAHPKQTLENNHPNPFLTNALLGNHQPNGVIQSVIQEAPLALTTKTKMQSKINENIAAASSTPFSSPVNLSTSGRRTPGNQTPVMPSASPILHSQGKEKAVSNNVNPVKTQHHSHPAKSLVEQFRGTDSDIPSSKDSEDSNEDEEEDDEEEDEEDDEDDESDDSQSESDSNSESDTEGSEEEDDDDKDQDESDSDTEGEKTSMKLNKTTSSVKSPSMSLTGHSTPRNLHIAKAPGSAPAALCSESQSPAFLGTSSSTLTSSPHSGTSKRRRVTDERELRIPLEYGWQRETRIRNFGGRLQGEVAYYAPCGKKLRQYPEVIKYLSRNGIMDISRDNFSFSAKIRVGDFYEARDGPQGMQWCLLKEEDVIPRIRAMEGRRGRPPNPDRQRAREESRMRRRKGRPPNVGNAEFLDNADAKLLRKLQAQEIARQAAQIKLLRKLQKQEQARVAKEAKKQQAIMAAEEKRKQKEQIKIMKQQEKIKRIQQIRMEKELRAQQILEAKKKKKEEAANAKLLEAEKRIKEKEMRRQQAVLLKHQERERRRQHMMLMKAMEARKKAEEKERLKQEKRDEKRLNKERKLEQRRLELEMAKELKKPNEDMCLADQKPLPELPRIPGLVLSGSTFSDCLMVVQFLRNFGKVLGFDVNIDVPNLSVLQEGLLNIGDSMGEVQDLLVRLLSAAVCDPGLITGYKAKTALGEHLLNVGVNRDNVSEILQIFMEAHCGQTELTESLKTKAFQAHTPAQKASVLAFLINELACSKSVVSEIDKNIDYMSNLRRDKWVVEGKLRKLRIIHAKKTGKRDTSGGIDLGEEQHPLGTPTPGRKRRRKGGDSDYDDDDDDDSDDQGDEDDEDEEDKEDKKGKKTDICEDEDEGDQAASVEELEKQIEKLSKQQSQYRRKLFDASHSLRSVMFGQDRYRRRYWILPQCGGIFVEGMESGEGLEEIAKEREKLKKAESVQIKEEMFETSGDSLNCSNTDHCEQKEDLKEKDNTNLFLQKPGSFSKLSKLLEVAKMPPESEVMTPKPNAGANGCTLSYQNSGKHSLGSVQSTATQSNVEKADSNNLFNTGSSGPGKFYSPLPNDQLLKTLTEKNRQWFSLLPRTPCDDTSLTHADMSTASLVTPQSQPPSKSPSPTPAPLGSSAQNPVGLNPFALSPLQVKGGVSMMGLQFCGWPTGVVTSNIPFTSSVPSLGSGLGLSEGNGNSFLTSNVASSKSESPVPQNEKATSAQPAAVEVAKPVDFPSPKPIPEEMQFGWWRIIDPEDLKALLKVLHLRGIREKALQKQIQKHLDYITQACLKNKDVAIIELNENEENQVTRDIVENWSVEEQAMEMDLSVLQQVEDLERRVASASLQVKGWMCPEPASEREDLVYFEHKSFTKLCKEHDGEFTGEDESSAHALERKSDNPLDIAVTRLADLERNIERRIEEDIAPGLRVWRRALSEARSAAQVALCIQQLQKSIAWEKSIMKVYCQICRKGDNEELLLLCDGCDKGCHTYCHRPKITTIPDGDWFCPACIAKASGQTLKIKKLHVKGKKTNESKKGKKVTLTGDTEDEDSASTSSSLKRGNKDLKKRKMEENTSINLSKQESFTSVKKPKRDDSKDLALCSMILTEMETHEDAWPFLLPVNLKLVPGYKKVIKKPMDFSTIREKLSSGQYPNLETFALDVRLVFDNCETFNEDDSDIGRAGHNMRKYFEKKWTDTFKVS

| SMILES | Potency |
| --- | --- |
| C=C1C(O)(c2ccccc2)C2CC[N+]1(C)CC2 (stereo unspecified) | inconclusive: 89.1 µM [inhibitor, single point] |
| N[C@@H](Cc1c[nH]c2ccccc12)c1nnc(SCc2c(F)cccc2Cl)o1 | inconclusive: 44.7 µM [inhibitor, partial curve] |
| O=C(CNC1CCCCC1)N1CCC2(CC1)OCCO2 | inconclusive: 89.1 µM [inhibitor, single point] |
| CSc1ccc(CN2CCN(c3ccccc3C)CC2)cc1 | inconclusive: 89.1 µM [inhibitor, single point] |
| Cc1ccc(N2C(=O)NC(=O)/C(=C\c3ccc([N+](=O)[O-])o3)C2=O)cc1 | active: 20 µM |
| CCCc1[nH]nc2c1C(c1cc(OC)cc(OC)c1)C(C#N)=C(N)O2 (stereo unspecified) | inconclusive: 89.1 µM [inhibitor, single point] |
| CCOC(=O)c1ccc2[nH]c(-c3ccc(S(=O)(=O)F)cc3)cc(=O)c2c1 | inconclusive: 89.1 µM [inhibitor, single point] |
| O=C(CCN1CCOCC1)Nc1ccc(Br)cc1C(=O)c1ccccc1 | inactive |
| Clc1ccc(OCCCN2CCCC2)cc1Cl | inconclusive: 89.1 µM [inhibitor, single point] |
| c1ccc2c(c1)Nc1ccccc1S2 | active: 12.6 µM |
| O=C1Nc2ccccc2/C1=C/c1nc2ccccc2c(=O)n1-c1ccc(O)cc1 | active: 39.8 µM |
| O=C(O)c1ccc[nH]c1=S | active: 39.8 µM |
| CC1(c2ccccc2)NCCN2C(=O)CSC21 (stereo unspecified) | inconclusive: 100 µM [inhibitor, single point] |
| COc1ccc(CCNCc2ccncc2)cc1OC | active: 50.1 µM |
| C[n+]1c(-c2ccccc2)c2cc(N)ccc2c2ccc(N)cc21 | active: 39.8 µM |
| C(=C\c1ccccc1)/CN1CCN(Cc2ccc3c(c2)OCCO3)CC1 | inconclusive: 89.1 µM [inhibitor, single point] |
| O=c1c2ccccc2[se]n1-c1ccccc1 | active: 1.41 µM |
| Cn1c(O)c(C=NCCN2CCOCC2)c(=O)n(C)c1=S | inconclusive: 79.4 µM [inhibitor, single point] |
| CCc1ccc(-n2nc(C)c3c2NC(=O)CSC3c2ccc(OC)cc2OC)cc1 (stereo unspecified) | inactive |
| O=C(N/N=C/c1c(O)n(CCc2ccc(F)cc2)c(=O)[nH]c1=O)c1ccncc1 | active: 50.1 µM |
| C=CCn1c(O)c(/C=N/NC(=O)c2ccncc2)c(=O)[nH]c1=O | active: 79.4 µM |
| CCN(c1ccc(C(O)(C(=O)OC)C(F)(F)F)cc1)S(=O)(=O)c1ccccc1 (stereo unspecified) | inactive |
| CCC(C)N1CCN(C(=O)COc2ccc3ccccc3c2)CC1 (stereo unspecified) | active: 17.8 µM |
| FC(F)(F)Oc1ccc(C2NCc3ccccc3-n3cccc32)cc1 (stereo unspecified) | inconclusive: 50.1 µM [inhibitor, partial curve] |
| CCCCn1c(=O)c(C(=O)Nc2ccccc2N)c(O)c2ccccc21 | active: 50.1 µM |
| c1ccc2c(c1)CSc1ccccc1C2C1=NCCN1 (stereo unspecified) | inactive |

| SMILES | Potency |
| --- | --- |
| CCC(=NCc1ccco1)c1c(O)n(-c2ccc(C)cc2)c(=O)[nH]c1=O | inactive |
| Oc1c(Br)c(Br)c(Br)c(Br)c1Br | active: 56.2 µM |
| O=C(N/N=C/c1c(O)n(C2CC2)c(=S)[nH]c1=O)c1ccccc1Cl | inconclusive: 28.2 µM [inhibitor, single point] |
| Cc1cccc(NC(=O)CSc2nnc([C@@H](N)Cc3c[nH]c4ccccc34)o2)c1C | inconclusive: 89.1 µM [inhibitor, single point] |
| CCOc1ccccc1N1C(=O)CC(=O)NC1=O | inconclusive: 79.4 µM [inhibitor, single point] |
| CCC1(CCc2ccncc2)C(=O)NC(=O)NC1=O | inconclusive: 89.1 µM [inhibitor, single point] |
| CN1CCc2nc3sc(C#N)c(N)c3c(-c3cccs3)c2C1 | inconclusive: 89.1 µM [inhibitor, single point] |
| CCCCCc1nc2c(c(=O)c3ccccc3n2C)c(=O)n1C1CCCCCC1 | inactive |
| C[N+]1([O-])[C@@H]2CC(OC(=O)[C@H](CO)c3ccccc3)C[C@H]1[C@@H]1O[C@@H]12 (stereo partly specified) | inactive |
| CCN(CC)CCN=Cc1c(O)n(CCc2ccccc2)c(=O)[nH]c1=O | inactive |
| Cn1c(=O)n(C)c2cc(N3CCCC3)c(NC(=O)Nc3ccccc3)cc21 | active: 50.1 µM |
| CCOC(=O)N1CCC(NC(=O)CCc2nc(C3=CCN(C)CC3)no2)CC1 | active: 79.4 µM |
| COCCCOc1ccnc(CS(=O)c2nc3ccccc3[nH]2)c1C (stereo unspecified) | inconclusive: 22.4 µM [inhibitor, full curve] |
| CCCCCCC(=O)N/N=C/c1c(O)n(C2CC2)c(=S)[nH]c1=O | inconclusive: 89.1 µM [inhibitor, single point] |
| COc1ccc(-c2n(-c3ccccn3)c3ccccc3[n+]2-c2ccccn2)cc1 | inactive |
| COc1cc(C=C2C(=O)NC(=O)NC2=O)ccc1OS(=O)(=O)c1ccccc1[N+](=O)[O-] | active: 50.1 µM |
| COc1ccc(CNCCc2ccc3c(c2)OCO3)c(OC)c1OC | active: 50.1 µM |
| O=C1NC(=O)N(c2ccccc2)C(=O)/C1=C/c1coc2ccc(O)cc2c1=O | inconclusive: 89.1 µM [inhibitor, single point] |
| O=[N+]([O-])c1ccc(-c2ccccc2)c([As](=O)(O)O)c1 | inconclusive: 79.4 µM [inhibitor, single point] |
| COc1ccc(NC(c2ccccc2F)P(=O)(Oc2ccccc2)Oc2ccccc2)cc1 (stereo unspecified) | inconclusive: 79.4 µM [inhibitor, single point] |
| CCCC[N+]12CCC(CC1)C(C(=O)c1cccs1)C2 (stereo unspecified) | inconclusive: 89.1 µM [inhibitor, single point] |
| O=C(COC(=O)c1ccccc1)Nc1ccccc1Sc1ccccc1 | inactive |
| Cc1ccc(CN(Cc2ccccc2)C(=S)NCC(=O)N2CCC3(CC2)OCCO3)o1 | inconclusive: 79.4 µM [inhibitor, single point] |
| CC(C)c1ccc(N2C(=O)NC(=O)/C(=C/c3cnc(-c4ccccc4)nc3)C2=O)cc1 | inconclusive: 89.1 µM [inhibitor, single point] |
| Cc1ccc(CN2CCN(Cc3ccccc3F)CC2)cc1 | active: 22.4 µM |
| COc1cccc(O)c1CN1CCCC(C(=O)c2ccccc2SC)C1 (stereo unspecified) | inconclusive: 79.4 µM [inhibitor, single point] |

| SMILES | Potency |
| --- | --- |
| CSc1ccc(CN2CCN(C(=O)COc3ccc(C)cc3)CC2)cc1 | active: 44.7 µM and active: 56.2 µM |
| COc1cccc(CNCCc2ccc3c(c2)OCO3)c1OC | active: 56.2 µM |
| COc1cccc(OC)c1C(=O)Nc1nc(N)n(-c2ccccc2)n1 | inconclusive: 89.1 µM [inhibitor, single point] |
| N#CCCn1cc(C(=O)Nc2ccc(F)cc2)c(-c2ccccc2)n1 | inactive |
| Cn1c(O)c(C(=N)COc2ccccc2)c(=O)n(C)c1=O | inactive |
| Cc1ccc(N2C(=O)/C(=C/c3ccc(CN(CCC#N)S(C)(=O)=O)o3)C(=O)NC2=S)cc1 | active: 50.1 µM |
| COc1cccc(-c2nc3ccc(N4CCN(C)CC4)cc3[nH]2)c1 | inconclusive: 79.4 µM [inhibitor, single point] |
| Cc1onc(-c2ccccc2Cl)c1C(=O)NCc1ccc2c(c1)cc(C)n2C | inconclusive: 70.8 µM [inhibitor, partial curve] |
| COC(=O)[C@@]1(Cc2ccc(F)cc2)[C@H]2c3cc(C(=O)N(C)C)[nH]c3C[C@H]2CN1C(=O)c1ccccc1 | active: 50.1 µM |
| Cc1nonc1OCCNc1ccc([N+](=O)[O-])c2cccnc12 | inconclusive: 28.2 µM [inhibitor, full curve, poor fit] |
| CN1C(=O)C(=Cc2cn(CC(=O)N3CCCC3)c3ccccc23)C(=O)N(C)C1=O | inactive |
| CC(C(=O)Nc1ccc(Br)cc1C(=O)c1ccccc1)N1CCOCC1 (stereo unspecified) | inactive |
| C=CCN1C(=O)NC(=O)/C(=C/c2ccc(OC)c(CSc3ccccn3)c2)C1=O | inactive |
| CC(C)COP(=O)(c1ccc(N(C)C)cc1)C(Nc1ccccc1)c1ccccc1 (stereo unspecified) | inconclusive: 35.5 µM [inhibitor, full curve] |
| O=[N+]([O-])c1ccc(N2CCCC2)cc1N/N=C1\CN2CCC1CC2 | inconclusive: 50.1 µM [inhibitor, partial curve] |
| Cc1ccc(-n2c(C)nc3ccccc3c2=O)c(C)c1 | inconclusive: 100 µM [inhibitor, single point] |
| CC(Cc1ccccc1)NCC(=O)Nc1cc(N(C)C)nc2ccccc12 (stereo unspecified) | active: 35.5 µM |
| CCOc1ccccc1N1C(=O)NC(=O)/C(=C/c2ccc3c4c(cccc24)CC3)C1=O | active: 50.1 µM |
| Cn1c(O)c(C(=Nc2ccc(F)cc2)c2ccccc2)c(=O)n(C)c1=O | inactive |
| O=C1c2cccc3cccc(c23)C(=O)N1/N=C/c1c(O)n(-c2ccccc2)c(=O)[nH]c1=O | inconclusive: 89.1 µM [inhibitor, single point] |
| C/C(=N\N1CCCCCC1)c1c(O)n(C)c(=O)n(C)c1=O | inactive |
| CCOC(=O)/C(CCCN(CC)CC)=N\O | inconclusive: 89.1 µM [inhibitor, single point] |
| CCCC12CN3CC(CCC)(CN(C1)C3c1ccccn1)C2=O (stereo unspecified) | active: 17.8 µM and active: 20 µM |
| COc1ccc(CN2C(=O)NC(=O)/C(=C\c3cccc(OC)c3OC)C2=O)cc1 | inconclusive: 79.4 µM [inhibitor, single point] |
